In article PMC12603276 one finds binding data, which are given here for one molecule.

Substitutions are numbered along the chain they refer to. No constants are given. Whether binding was seen depends on the method and setting. Binding seen in cells or lysates may run through a third protein. Some results given as binding are weak or reduced against the parent protein; the word gives no strength. For some assays here: Where a sequence is shown, tags or fusion partners need not be part of it.

One test addresses T1, Flag-rPGK1 S256A (human) (UniProt P00558).
T1 sequence: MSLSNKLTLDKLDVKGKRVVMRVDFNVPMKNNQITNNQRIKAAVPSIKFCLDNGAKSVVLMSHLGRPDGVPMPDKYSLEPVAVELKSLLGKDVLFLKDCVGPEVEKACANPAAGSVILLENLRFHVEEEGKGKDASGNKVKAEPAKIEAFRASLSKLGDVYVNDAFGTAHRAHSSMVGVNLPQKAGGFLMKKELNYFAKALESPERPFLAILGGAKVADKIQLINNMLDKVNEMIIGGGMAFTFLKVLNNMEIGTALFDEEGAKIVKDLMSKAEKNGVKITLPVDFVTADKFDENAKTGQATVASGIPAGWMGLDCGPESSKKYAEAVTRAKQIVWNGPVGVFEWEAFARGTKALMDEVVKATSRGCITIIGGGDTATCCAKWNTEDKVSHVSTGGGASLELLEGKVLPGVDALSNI
Put plainly: co-IP; PANC-1 cells expressing WT Flag-rPGK1 or Flag-rPGK1 S256A, with or without IR (4 Gy, 6 h); immunoprecipitation and immunoblot for endogenous MORC2.

The target of another test is T2, WT Flag-rPGK1 (human) (UniProt P00558).
T2 sequence: T1 sequence with A256S
The test is described as above.

Test [1] has as its target T3, phosphoglycerate kinase 1 (PGK1), endogenous (human (endogenous in PANC-1 and AsPC-1)) (UniProt P00558).
T3 sequence: T1 sequence with A256S
Put plainly: condition: only immunoprecipitates treated with CIP (10 units); co-IP; endogenous proteins; PANC-1 cells collected 6 h after IR (4 Gy); immunoprecipitates treated with CIP (10 units), then immunoblot. Background: In western blotting, separated proteins are transferred to a membrane and probed.

Test [2] deals with T3, phosphoglycerate kinase 1 (PGK1), endogenous (human (endogenous in PANC-1 and AsPC-1)). Put plainly: condition: only cells pretreated with the CK2 inhibitor TBB (10 μM) before IR; co-IP; endogenous proteins; PANC-1 cells pretreated with the CK2 inhibitor TBB (10 μM) for 1 h before IR (4 Gy, 6 h); immunoprecipitation and immunoblot.
Test [3] shares this target. Put plainly: co-IP; endogenous proteins; anti-PGK1 immunoprecipitation from PANC-1 and AsPC-1 lysates, with or without IR (4 Gy, 6 h), then immunoblot; also cells pretreated with LY294002 (30 μM), U0126 (20 µM) or SP600125 (25 μM) for 1 h before IR.

B1: microrchidia CW-type zinc finger 2 (MORC2), endogenous (enzyme, UniProt Q9Y6X9 1-1032)
chain: MAFTNYSSLNRAQLTFEYLHTNSTTHEFLFGALAELVDNARDADATRIDIYAERREDLRGGFMLCFLDDGAGMDPSDAASVIQFGKSAKRTPESTQIGQYGNGLKSGSMRIGKDFILFTKKEDTMTCLFLSRTFHEEEGIDEVIVPLPTWNARTREPVTDNVEKFAIETELIYKYSPFRTEEEVMTQFMKIPGDSGTLVIIFNLKLMDNGEPELDIISNPRDIQMAETSPEGTKPERRSFRAYAAVLYIDPRMRIFIHGHKVQTKRLSCCLYKPRMYKYTSSRFKTRAEQEVKKAEHVARIAEEKAREAESKARTLEVRLGGDLTRDSRVMLRQVQNRAITLRREADVKKRIKEAKQRALKEPKELNFVFGVNIEHRDLDGMFIYNCSRLIKMYEKVGPQLEGGMACGGVVGVVDVPYLVLEPTHNKQDFADAKEYRHLLRAMGEHLAQYWKDIAIAQRGIIKFWDEFGYLSANWNQPPSSELRYKRRRAMEIPTTIQCDLCLKWRTLPFQLSSVEKDYPDTWVCSMNPDPEQDRCEASEQKQKVPLGTFRKDMKTQEEKQKQLTEKIRQQQEKLEALQKTTPIRSQADLKKLPLEVTTRPSTEEPVRRPQRPRSPPLPAVIRNAPSRPPSLPTPRPASQPRKAPVISSTPKLPALAAREEASTSRLLQPPEAPRKPANTLVKTASRPAPLVQQLSPSLLPNSKSPREVPSPKVIKTPVVKKTESPIKLSPATPSRKRSVAVSDEEEVEEEAERRKERCKRGRFVVKEEKKDSNELSDSAGEEDSADLKRAQKDKGLHVEVRVNREWYTGRVTAVEVGKHVVRWKVKFDYVPTDTTPRDRWVEKGSEDVRLMKPPSPEHQSLDTQQEGGEEEVGPVAQQAIAVAEPSTSECLRIEPDTTALSTNHETIDLLVQILRNCLRYFLPPSFPISKKQLSAMNSDELISFPLKEYFKQYEVGLQNLCNSYQSRADSRAKASEESLRTSERKLRETEEKLQKLRTNIVALLQKVQEDIDINTDDELDAYIEDLITKGD
For B1, the binding result with Flag-rPGK1 S256A (human) is listed as “no binding”; with WT Flag-rPGK1 (human), “binds”; in test [1] it was “no binding”; in test [2], “no binding”; in test [3] it was “binds”.
